# Test results as given in PMC4336329 (PLoS ONE, 2015).
# About 2,200 (0.71%) of roughly 310,000 compounds showed an effect of 50% or more. The effect is printed as a negative number. Some of the results follow.
# Molecular target: human ether-à-go-go-related gene (hERG) potassium channel (human, UniProt Q12809)
# Assay: primary screen, population patch clamp on CHO cells stably expressing hERG
# human ether-à-go-go-related gene (hERG) potassium channel, sequence (Q12809 whole entry, looked up): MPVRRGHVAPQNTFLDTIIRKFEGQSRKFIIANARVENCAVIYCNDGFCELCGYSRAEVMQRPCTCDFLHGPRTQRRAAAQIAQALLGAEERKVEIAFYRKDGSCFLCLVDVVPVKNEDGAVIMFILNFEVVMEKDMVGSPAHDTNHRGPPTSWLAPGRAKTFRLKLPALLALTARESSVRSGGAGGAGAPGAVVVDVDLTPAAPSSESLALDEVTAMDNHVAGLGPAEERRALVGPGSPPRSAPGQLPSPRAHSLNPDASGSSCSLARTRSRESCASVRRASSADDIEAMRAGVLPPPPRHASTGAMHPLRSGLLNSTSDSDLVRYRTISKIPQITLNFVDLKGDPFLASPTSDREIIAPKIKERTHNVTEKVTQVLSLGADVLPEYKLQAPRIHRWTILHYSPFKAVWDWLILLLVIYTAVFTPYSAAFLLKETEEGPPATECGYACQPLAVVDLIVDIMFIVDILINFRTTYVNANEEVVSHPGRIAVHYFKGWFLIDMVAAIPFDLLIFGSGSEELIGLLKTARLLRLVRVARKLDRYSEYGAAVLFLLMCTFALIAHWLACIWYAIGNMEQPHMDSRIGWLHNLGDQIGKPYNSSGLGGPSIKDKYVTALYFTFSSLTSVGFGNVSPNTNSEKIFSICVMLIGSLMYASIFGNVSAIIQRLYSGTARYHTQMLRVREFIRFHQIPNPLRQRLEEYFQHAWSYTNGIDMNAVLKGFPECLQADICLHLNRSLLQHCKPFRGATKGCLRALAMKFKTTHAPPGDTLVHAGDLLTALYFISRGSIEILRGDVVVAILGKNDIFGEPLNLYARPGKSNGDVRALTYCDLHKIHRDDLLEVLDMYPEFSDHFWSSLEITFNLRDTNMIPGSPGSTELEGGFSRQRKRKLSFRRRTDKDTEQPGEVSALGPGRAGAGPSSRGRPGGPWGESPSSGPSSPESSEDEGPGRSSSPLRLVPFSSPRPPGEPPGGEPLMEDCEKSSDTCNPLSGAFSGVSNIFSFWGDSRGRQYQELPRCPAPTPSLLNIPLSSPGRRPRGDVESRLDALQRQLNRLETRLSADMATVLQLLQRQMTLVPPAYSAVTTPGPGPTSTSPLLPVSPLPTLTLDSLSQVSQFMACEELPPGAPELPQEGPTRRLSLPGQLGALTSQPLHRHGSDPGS
row,SMILES,"hERG current change (%, negative = inhibition) at 1uM [%]"
1,O=C(Nc1ccc(N2C(=O)C3C4C=CC(C4)C3C2=O)cc1)Nc1nnc(C(F)(F)F)s1 (stereo not drawn),10.2
2,O=C(Nc1ccc(C(=O)O)cc1)/C(=C\c1ccc2c(c1)OCO2)NC(=O)c1ccco1,19.4
3,O=[N+]([O-])c1ccc(OCC(O)CN2CCN(c3ccccc3F)CC2)cc1 (stereo not drawn),-77.6
4,Cn1c2c(c(=O)n(C)c1=O)C(C(F)(F)F)(C(F)(F)F)N=C(C1CCCCC1)N2,11.9
5,CCCCSCCCNC(=S)Nc1ccccc1C,6.85
6,CN(CC(=O)Nc1cccc(F)c1)C(=O)c1cccnc1Sc1ccccc1,-5.63
7,COCC(C)NCc1ccccc1C.O=C(O)C(=O)O (stereo not drawn),3.63
8,Cc1cc(NC(=O)CS(=O)(=O)c2c[nH]c3ccccc23)no1,10.9
9,CN(C)C(C(=O)NC1CCCCC1)c1ccc(Cl)cc1 (stereo not drawn),6.84
10,COc1ccc(CC(=S)N2CCOCC2)cc1OC,21.5
11,N#Cc1ccccc1OCC(=O)NCCNC(=O)COc1ccccc1C#N,5.59
12,COc1cc(Cc2nccc3cc(OC)c(OC)cc23)c(NC(C)=O)cc1OC,22.3
13,CCN(CC)C(=O)c1nn(Cc2ccccc2)c(=O)c2ccccc12,-1.69
14,Cc1cc(NC(=O)C(C)C)ncc1NC(=O)c1ccccn1,-0.974
15,Cn1c(=O)cc(OCCCC(=O)NC2CCCC2)c2ccccc21,5.33
16,Cc1ccc(CNC(=O)C(Cc2ccccc2)NS(=O)(=O)c2cccs2)cc1 (stereo not drawn),9.39
17,CC1CCN(C(=O)Cn2cnc3c(cnn3C(C)(C)C)c2=O)CC1,3.8
18,COC(=O)c1nc(-n2nc(C)cc2C)ccc1Cl,-12.9
19,Cn1nc(N2CCN(S(=O)(=O)c3ccccc3)CC2)c(=O)n(C)c1=O,4.75
20,Cc1ccc(-c2nn(CCC(=O)O)cc2/C=C\C(=O)c2ccc(Br)cc2)cc1,13
21,O=C(CCN1C(=O)c2ccccc2C1=O)Nc1cccc(O)c1,8.04
22,COc1ccc(C(=O)Nc2ccc(C)cc2C(=O)c2ccccc2)c(OC)c1,7.13
23,CCN1CCN(c2nc3sc4c(c3c(=O)n2-c2ccc(OC)cc2)CCCCC4)CC1,-11.1

row,SMILES,"hERG current change (%, negative = inhibition) at 1uM [%]"
1,Cc1ccc(C(=O)NCC(=O)N2CCc3ccccc3C2)cc1C,3.9
2,CN1C(=O)NC(c2ccc(O)cc2)C2=C1CN(c1cccc3ccccc13)C2=O (stereo not drawn),-7.61
3,C=CCNC(=O)c1ccc2c(=O)n(Cc3ccccc3OC)c(=S)[nH]c2c1,15.5
4,Cc1ccc(CNC(=O)CC2C(=O)Nc3c2c(=O)n(C)c(=O)n3Cc2ccccc2)cc1 (stereo not drawn),-1.85
5,CCOC(=O)C1=C(C)N=c2s/c(=C\c3ccc(OCC(=O)O)cc3)c(=O)n2C1c1ccccc1OC (stereo not drawn),13.6
6,O=C(CSc1nnc2n1CCCN2)c1ccccc1,6.1
7,CCOc1ccccc1NC(=O)CSc1nc(=O)n(CCN2CCOCC2)c2c1CCCC2,-2.38
8,COc1ccc(-c2cn(-c3ccc(Cl)cc3)c3[n+]2CCCCC3)cc1.[Br-],1.02
9,COc1ccc(NS(=O)(=O)c2ccc(F)c(Cl)c2)cn1,10.6
10,CCc1c(C2(O)CCCCC2)[nH]c2ccc(C(F)(F)F)cc12,23.6
11,O=C(CN(Cc1cccs1)C(=O)CNS(=O)(=O)c1ccc(Cl)cc1)NCc1ccco1,-5.7
12,CCOC(=O)N1CCN(Cc2nc3ccc([N+](=O)[O-])cc3c(=O)n2-c2cccc(OC)c2)CC1,0.339
13,O=C(CCSc1nnc(-c2ccncc2)o1)Nc1ccccc1Cl,5.85
14,Cc1ccsc1/C=C/c1n[nH]c(=O)c(C#N)c1C,12.9
15,COc1ccc(S(=O)(=O)Nc2cc3c4c(c2)CCN4C(=O)CC3)cc1C,-0.0573
16,COc1ccc(C(=O)NC(C)c2nccs2)cc1OC1CCN(C(C)C)CC1 (stereo not drawn),13.2
17,O=C(CCC1CCCCC1)NNC(=O)c1cnccn1,2.55
18,COc1ccc(-c2cc(CNC(C)=O)on2)cc1,5.73
19,Nc1ccn(-c2ncc(C(F)(F)F)cc2Cl)c(=O)n1,7.65
20,COc1ccc(-n2ncc3c(N(C)C4CCCCC4)ncnc32)cc1,12.8
21,COc1cc(SC)ccc1C(=O)Nc1ccccc1,8.14
22,Cc1nc(-c2coc3cc(OCC(=O)O)ccc3c2=O)cs1,-0.283
23,CC(C)(C)NC(=O)Cc1ccc(Cl)c(Cl)c1,4.16

row,SMILES,"hERG current change (%, negative = inhibition) at 1uM [%]"
1,Nc1nnc(CC(=O)N/N=C/c2cccc([N+](=O)[O-])c2)s1,10.7
2,COCCOC(=O)c1c(NC(=O)CNC2CCCc3ccccc32)sc(C(N)=O)c1C (stereo not drawn),10.5
3,Cc1ccccc1OCCOc1cccc(/C=N/NC(=O)Cc2nnc(N)s2)c1,9.37
4,C=CCNc1nc(NCCN2CCOCC2)nc(OC)n1,-3.49
5,O=C(c1cccc(Cl)c1)N1CCN(C(=O)c2ccco2)CC1,1.69
6,CCc1ccc(NC(=O)CSc2nc3ccccc3nc2N2CCCC2)cc1,17
7,O=C(Nc1ccc(C(=O)N2CCN(c3ccccn3)CC2)cc1)c1ccc(Br)o1,-10.3
8,Cn1c(=O)c(=O)n(C)c2cc(S(=O)(=O)N3CCCC3C(=O)Nc3ccc(F)cc3)ccc21 (stereo not drawn),1.23
9,CCOC(=O)N1CCC(NC(=O)C2CCCN(Cc3nc(-c4cccc(Cl)c4)oc3C)C2)CC1 (stereo not drawn),-50.4
10,Cc1ccccc1NC(=O)CCN1CCN(C)CC1,12.7
11,Cc1cc(OCC(=O)N2CCc3ccccc3C2)c2c(-c3ccccc3)cc(=O)oc2c1,4.28
12,N/C(=N\NC(=O)c1ccccc1Cl)c1cc2ccccc2oc1=O,18.8
13,O=C1CC(NNC(=O)c2ccc(Br)cc2)C(=O)N1 (stereo not drawn),15.2
14,COc1ccc(/C=C(\C#N)c2cc(OC)c(OC)cc2[N+](=O)[O-])cc1,11.9
15,Cc1ccccc1C(=O)c1cccn1CC(=O)NCCC1=CCCCC1,11.5
16,ClC(Cl)c1nnc(-c2ccccc2)c(-c2c[nH]c3ccccc23)n1,11.6
17,O=C(OCc1cnc(Cl)s1)c1cccc(Cl)c1,-5.8
18,CC(C)(OC(=O)c1cccs1)c1cc2ccccc2c(=O)o1,11.7
19,COc1cc(NC(=S)NCc2cccnc2)c(OC)cc1Cl,-4.32
20,OC1(c2ccc(Cl)cc2)CCN(Cc2cn[nH]c2-c2ccccc2)CC1,-46
21,O=C(O)c1cccc(S(=O)(=O)Nc2ccc3c(c2)OCO3)c1,15.6
22,Cc1ccc(C(=O)OCC(=O)c2c[nH]c3ccccc23)cc1NC(=O)c1ccco1,4.66
23,O=C(O)c1cc(S(=O)(=O)Nc2ccccc2C(=O)O)ccc1O,6.16

row,SMILES,"hERG current change (%, negative = inhibition) at 1uM [%]"
1,CCN1CCOC(CC(=O)Nc2ccc([N+](=O)[O-])cc2)C1=O (stereo not drawn),8.4
2,CN(C)S(=O)(=O)Oc1ccsc1C(=O)Nc1cccc(Cl)c1,16.6
3,COc1ccc(C(=O)C2CCCN(S(=O)(=O)c3cccc(C)c3)C2)c(C)c1 (stereo not drawn),17.5
4,O=C(c1ccccc1)C(O)C(c1ccccc1)N1CCOCC1 (stereo not drawn),14.3
5,CC(C(=O)C12CC3CC(CC(C3)C1)C2)N1CCOCC1.Cl (stereo not drawn),20.5
6,COc1ccc(C(=O)CCC(=O)Nc2cccnc2)cc1,2.13
7,O=C(Cn1cncn1)NCc1cc(F)ccc1F,13.8
8,CC(C)(C)NC(=O)C(c1ccc(F)cc1)N(Cc1ccco1)C(=O)c1csnn1 (stereo not drawn),8.39
9,Cc1cc2cc(C)c3nnc(SCC(=O)N4CCN(C(=O)c5ccco5)CC4)n3c2cc1C,2.79
10,CC(=O)c1cccc(NC(=O)C2C(c3ccccc3)C2(Cl)Cl)c1 (stereo not drawn),15.9
11,CC(C)N(CCC#N)C(=O)Nc1ccc2c(c1)CCO2,9.98
12,COc1ccc([N+](=O)[O-])cc1NC(=O)C(C)OC(=O)C1c2ccccc2Oc2ccccc21 (stereo not drawn),22.1
13,Cc1ccc(NC(=O)NCc2ccc3[nH]c(C)cc3c2)cc1,9.68
14,O=C(CNC(=O)COc1ccccc1)NCc1ccccc1F,4.01
15,O=C1N(Nc2ccccc2)C(c2ccc(Br)cc2)C12CCCC2 (stereo not drawn),18.3
16,COc1ccc(COc2ccc3c(C)cc(=O)oc3c2)cc1,7.12
17,Cc1ccc(S(=O)(=O)NC(CC(C)C)C(=O)N2CCOCCOCCOCCOCC2)cc1 (stereo not drawn),8.13
18,Cc1ccccc1NC(=O)CSc1nc(N)c2c3c(sc2n1)CSC(C)(C)C3,10.8
19,CC(C)CCN1CCN(C2CSCCSC2)CC1CCO (stereo not drawn),8.36
20,CCN(CC)c1ccc(SS(=O)(=O)[O-])cc1.[Na+],4.84
21,Cc1cnc(NC(=O)C2(c3ccccc3)CC2)s1,5.59
